The other results are listed elsewhere or left out.
Each molecule was assayed on HSkMC (human skeletal muscle cells) (assay: cytotoxicity call (relative viability < 0.9)). Conditions: 10 µM.
For C[C@@H]1CCCCO[C@H](CN(C)C(=O)NC2CCCCC2)[C@H](C)CN([C@H](C)CO)C(=O)c2cc(NC(=O)c3ccncc3)ccc2O1, the cytotoxicity call was “inactive”. CC(=O)N1[C@@H]2c3cccc(=O)n3C[C@@H]2[C@@H](CO)[C@@H]1C(=O)N1CCc2ccccc2C1 was tested, and the cytotoxicity call was “inactive”. For Cc1cc(C(=O)Nc2cccc3c2O[C@@H](CN(C)Cc2ccccc2)[C@H](C)CN([C@H](C)CO)C3=O)n(C)n1, the cytotoxicity call was “inactive”. For Cc1ccc(S(=O)(=O)N(C)C[C@H]2Oc3ccc(NC(=O)C4CC4)cc3C(=O)N([C@H](C)CO)C[C@H]2C)cc1, the cytotoxicity call was “inactive”. C[C@H]1CN([C@@H](C)CO)C(=O)c2cc(NC(=O)Nc3cccc4ccccc34)ccc2O[C@H]1CN(C)C(=O)Nc1ccccc1 was tested, and the cytotoxicity call was “inactive”. C[C@H]1CN([C@@H](C)CO)S(=O)(=O)c2ccc(C#CC3(O)CCCC3)cc2O[C@H]1CN(C)C(=O)c1cccnc1 was tested, and the cytotoxicity call was “inactive”. With CO[C@@H]1[C@@H](O[C@@H]2O[C@H](C)[C@@H](O[C@H]3C[C@@](C)(O)[C@@H](OC(=O)CC(C)C)[C@H](C)O3)[C@H](N(C)C)[C@H]2O)[C@@H](CC=O)C[C@@H](C)[C@@H](O)/C=C/C=C/CC(C)OC(=O)C[C@H]1OC(C)=O (stereo not given in full) the cytotoxicity call was “active”. COc1ccc(C#Cc2ccc3c(c2)O[C@H](CN(C)C(=O)CN2CCOCC2)[C@H](C)CN([C@H](C)CO)S3(=O)=O)cc1 was tested, and the cytotoxicity call was “inactive”. C[C@H]1CN([C@@H](C)CO)C(=O)c2cc(NS(=O)(=O)c3cn(C)cn3)ccc2O[C@@H]1CN(C)Cc1ccccc1 was tested, and the cytotoxicity call was “inactive”. With CC(C)NC(=O)N(C)C[C@H]1Oc2c(NS(=O)(=O)c3ccc(Cl)cc3)cccc2C(=O)N([C@H](C)CO)C[C@@H]1C the cytotoxicity call was “inactive”. O=C(C[C@H]1CC[C@@H]2[C@H](COC[C@H](O)CN2C(=O)c2cnccn2)O1)NCc1ccc(Oc2ccccc2)cc1 was tested, and the cytotoxicity call was “inactive”. COc1cccc(S(=O)(=O)N(C)C[C@H]2Oc3ncc(Br)cc3C(=O)N([C@H](C)CO)C[C@H]2C)c1 was tested, and the cytotoxicity call was “inactive”. For Cc1noc(C)c1NC(=O)N(C)C[C@H]1OCCCC[C@@H](C)Oc2ccc(NS(=O)(=O)c3ccc(F)cc3)cc2C(=O)N([C@@H](C)CO)C[C@@H]1C, the cytotoxicity call was “inactive”. For C[C@H](CO)N1C[C@H](C)[C@@H](CN(C)CC2CC2)Oc2ccc(NS(=O)(=O)c3cn(C)cn3)cc2CC1=O, the cytotoxicity call was “inactive”. In the case of O=C(C[C@@H]1CC[C@H]2[C@@H](COC[C@@H](O)CN2C(=O)Nc2ccc(F)cc2)O1)NCCCN1CCOCC1, the cytotoxicity call is reported as “inactive”. C[C@H](CO)N1C[C@H](C)[C@@H](CN(C)S(C)(=O)=O)OCCCC[C@H](C)Oc2ccc(NS(=O)(=O)c3ccc(F)cc3)cc2C1=O was tested, and the cytotoxicity call was “inactive”. Cc1ccc(S(=O)(=O)N(C)C[C@@H]2OCCCC[C@@H](C)Oc3ccc(NC(=O)C4CCCCC4)cc3C(=O)N([C@H](C)CO)C[C@H]2C)cc1 was tested, and the cytotoxicity call was “inactive”. For COc1ccc2c3c(n(c2c1)C)[C@H](CO)N(Cc1cc(cc(c1)OC)OC)C[C@]13CCN(CC1)C(=O)Nc1cccc(c1)F, the cytotoxicity call was “inactive”. In the case of COc1ccc(S(=O)(=O)Nc2ccc3c(c2)CC(=O)N([C@@H](C)CO)C[C@H](C)[C@H](CN(C)Cc2ccc(-c4ccccc4)cc2)O3)cc1, the cytotoxicity call is reported as “active”. CCCN(C)C[C@H]1OCCCC[C@@H](C)Oc2ccc(NS(=O)(=O)c3ccc(Cl)cc3)cc2C(=O)N([C@@H](C)CO)C[C@H]1C was tested, and the cytotoxicity call was “inactive”. COc1ccc(NC(=O)N(C)C[C@@H]2Oc3ccc(NS(=O)(=O)c4cn(C)cn4)cc3C(=O)N([C@@H](C)CO)C[C@@H]2C)cc1 was tested, and the cytotoxicity call was “inactive”. For COCC(=O)N[C@@H]1C[C@H](CO)[C@H](O)C1, the cytotoxicity call was “inactive”. With CC(C)CC#Cc1cnc2c(c1)C(=O)N([C@H](C)CO)C[C@@H](C)[C@H](CN(C)S(=O)(=O)c1cccs1)O2 the cytotoxicity call was “inactive”. With COc1ccc2c3c([nH]c2c1)[C@@H](CO)N(C[C@]13CN(Cc2cc(on2)-c2ccccc2)C1)C(=O)Nc1ccc(cc1)F the cytotoxicity call was “inactive”. With CC(C)C[C@H]1CC(=O)N=C(N)N1 the cytotoxicity call was “inactive”. With COCCNC(=O)NC(=O)COC(=O)c1cccn1C the cytotoxicity call was “inactive”. In the case of O=C(CCO[C@@H]1O[C@H](CO)[C@@H](O)[C@H](O)[C@H]1O)c1ccc(O)cc1, the cytotoxicity call is reported as “inactive”. In the case of Cc1ccc(S(=O)(=O)Nc2ccc3c(c2)C(=O)N([C@@H](C)CO)C[C@@H](C)[C@@H](CN(C)C(=O)CCC(F)(F)F)OCCCC[C@H](C)O3)cc1, the cytotoxicity call is reported as “inactive”. In the case of C[C@H]1CN([C@@H](C)CO)C(=O)Cc2cc(NC(=O)CCCCCC(=O)Nc3ccccc3N)ccc2O[C@H]1CN(C)S(=O)(=O)c1cn(C)cn1, the cytotoxicity call is reported as “inactive”. In the case of COc1ccc2c3c([nH]c2c1)[C@H](CO)N(C[C@]13CCN(CC1)S(=O)(=O)c1cn(cn1)C)C(=O)Nc1ccc(cc1)F, the cytotoxicity call is reported as “inactive”. C[C@H]1CN([C@@H](C)CO)C(=O)c2cccc(NC(=O)c3nc4ccccc4s3)c2O[C@@H]1CN(C)Cc1ccc(C(F)(F)F)cc1 was tested, and the cytotoxicity call was “active”. With Cc1noc(C)c1NC(=O)Nc1ccc2c(c1)C(=O)N([C@@H](C)CO)C[C@@H](C)[C@@H](CN(C)S(=O)(=O)c1ccc(Cl)cc1)OCCCC[C@@H](C)O2 the cytotoxicity call was “inactive”. For C[C@H]1CN([C@@H](C)CO)C(=O)Cc2cc(NC(=O)c3ccncc3)ccc2O[C@H]1CN(C)S(=O)(=O)c1ccc(Cl)cc1, the cytotoxicity call was “inactive”. In the case of C[C@@H]1CN([C@H](C)CO)C(=O)c2cc(NC(=O)Nc3ccc(F)cc3)ccc2O[C@H]1CN(C)Cc1ccc(Cl)c(Cl)c1, the cytotoxicity call is reported as “inactive”. For C[C@@H]1CN([C@@H](C)CO)C(=O)c2cc(NC(=O)Cc3cn(C)c4ccccc34)ccc2O[C@H]1CN(C)S(C)(=O)=O, the cytotoxicity call was “inactive”. In the case of CC(C)CC#Cc1ccc2c(c1)O[C@@H](CN(C)CC1CCOCC1)[C@H](C)CN([C@@H](C)CO)S2(=O)=O, the cytotoxicity call is reported as “inactive”. For C[C@@H]1CCCCO[C@@H](CN(C)C(=O)NC2CCCCC2)[C@@H](C)CN([C@H](C)CO)C(=O)c2cc(NC(=O)Nc3ccc(C(F)(F)F)cc3)ccc2O1, the cytotoxicity call was “active”. In the case of O=C(C[C@@H]1CC[C@@H]2[C@H](COC[C@@H](O)CN2S(=O)(=O)c2ccccc2F)O1)N1CCC(Cc2ccccc2)CC1, the cytotoxicity call is reported as “inactive”. In the case of Cc1ccc(S(=O)(=O)Nc2ccc3c(c2)C(=O)N([C@@H](C)CO)C[C@@H](C)[C@@H](CN(C)Cc2ccncc2)OCCCC[C@@H](C)O3)cc1, the cytotoxicity call is reported as “inactive”. O=C(O)/C=C/C(=O)O was tested, and the cytotoxicity call was “inactive”.
